# This is one part of the list.
# T1: UNK ZnF1-6 (called full-length) (human, UniProt Q9C0B0 30-357)
# T1 sequence: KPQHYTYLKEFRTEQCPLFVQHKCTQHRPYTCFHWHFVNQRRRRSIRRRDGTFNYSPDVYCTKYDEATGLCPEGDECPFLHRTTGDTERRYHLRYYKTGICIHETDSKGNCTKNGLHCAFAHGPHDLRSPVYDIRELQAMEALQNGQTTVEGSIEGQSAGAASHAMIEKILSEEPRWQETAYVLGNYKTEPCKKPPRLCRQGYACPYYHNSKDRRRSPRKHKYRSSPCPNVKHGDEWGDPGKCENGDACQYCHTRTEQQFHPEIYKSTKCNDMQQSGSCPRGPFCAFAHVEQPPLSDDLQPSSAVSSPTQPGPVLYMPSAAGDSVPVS
# B1: chr1:231223762:231225466:-|three_prime_utr|ENSG00000143633|control|control|control (ssRNA)
# RNA: GGGAGUUCUACAGUCCGACGAUCAUCUGGAUGAACCUACUGAUGAGUUCUGACAAGGACGCCUUGAAUGUAUGUGGUGUUGCUAGCCCAUUAGAGCGCUUCACUGUCUCUCAUUUAUCCUUGUCAAAGUAGGAUUUAGUAAACCAACAGAGGAUUGAGCAUCA
# B2: ENSG00000070961:be:win_1251|CDS|ENSG00000070961|bound_else_gene|NA|bound_elsewhere_windowed (ssRNA)
# RNA: GGGAGUUCUACAGUCCGACGAUCGAAGUUCUUCAUUAUUGGAGUUACAGUUUUAGUGGUCGCAGUGCCAGAAGGUCUUCCACUUGCAGUCACGAUCUCACUGGCUUAUUCAGUCAAAAAAAUGAUGAAAGAUAAUAACUUAGUCAACAGAGGAUUGAGCAUCA
# B3: chr8:38210266:38210373:+|CDS|ENSG00000156735|unk|total|mutant (ssRNA)
# RNA: GGGAGUUCUACAGUCCGACGAUCAAAAAUCAUACAUGUGCUGGAGAAGGUCCAGUAUCUUGAACAAGAAGCCGAAGAAUUUGCCGGAAAAAAGACAGACAAAGCAUACUGGCUUCUGGAAGAAAUGCUAACCAAGGAACUUUUCAACAGAGGAUUGAGCAUCA
# B4: chr1:179105649:179105771:-|3pUTR|ENSG00000143322|msi1|FALSE|bound_elsewhere (ssRNA)
# RNA: GGGAGUUCUACAGUCCGACGAUCAGAAAGGAAACCUUGAUUCUUACCAUUGCUGCUCCAAAGGAGGCCCAGGUUAAGAGGAUUAGAGGAGACACGCGGUGCUGGGCAUUCCUGGCAGGUGUUGGGUGAUCCCCGCAGUAUGUCCAACAGAGGAUUGAGCAUCA
# B5: ENSG00000070961:be:win_901|CDS|ENSG00000070961|bound_else_gene|NA|bound_elsewhere_windowed (ssRNA)
# RNA: GGGAGUUCUACAGUCCGACGAUCAAAGAUGAGAAGAAAAAGGAAAAGAAAAAUAAGAAACAAGAUGGAGCUAUUGAGAAUCGCAACAAAGCAAAAGCCCAGGAUGGUGCAGCCAUGGAAAUGCAGCCAUUGAAGAGUGAAGAACAACAGAGGAUUGAGCAUCA
# B6: chr5:141515046:141515147:-|3pUTR|ENSG00000131504|msi1_unk|total|mutant (ssRNA)
# RNA: GGGAGUUCUACAGUCCGACGAUCAAAAAGAGAGAGAGAGAGAGGUGUGAGGGACAAAAUGCAAACCUAUUUCCCUUGCCUCACCGGCUUCUGGGAUGUCAUCACCUCCAGUUUGUUGGUUUUGUUUCCAACUGUUAAUAAAGCCAACAGAGGAUUGAGCAUCA
# B7: chr1:173734013:173734119:+|CDS|ENSG00000076321|unk|FALSE|unique (ssRNA)
# RNA: GGGAGUUCUACAGUCCGACGAUCCAUUGACGAGAGGGCUAUGGAAUUACUGAUUGACUUUGCGUAUACCUCCCAGAUAACAGUAGAAGAGGGCAAUGUUCAGACUCUUCUGCCAGCUGCUUGCCUCCUCCAGCUGGCAGAAAUCAACAGAGGAUUGAGCAUCA
# B8: chr1:152033651:152033752:-|CDS|ENSG00000163191|unk|FALSE|unique (ssRNA)
# RNA: GGGAGUUCUACAGUCCGACGAUCGGAUGGUUAUAACUACACUCUCUCCAAGACAGAGUUCCUAAGCUUCAUGAAUACAGAACUAGCUGCCUUCACAAAGGUACUGGUCCCUGUCUCCCCCACUUCCCCAAACUACCCACAACACAACAGAGGAUUGAGCAUCA
# B9: chr6:75950561:75951094:-|CDS|ENSG00000112706|control|control|control (ssRNA)
# RNA: GGGAGUUCUACAGUCCGACGAUCAGCUUUACAGUAUAUCACCACUAGUUCUAUGACCAUUGCCCCCAAGGGCCGAGAGCUGGUAGUGUUCUUCAGUCUGCGUGUUGCUAACAUGGCCUUCUCCAACGACCUGUUCAACAAGAGCAACAGAGGAUUGAGCAUCA
# B10: chr21:32314052:32314153:-|3pUTR|ENSG00000142207|msi1|total|mutant (ssRNA)
# RNA: GGGAGUUCUACAGUCCGACGAUCCAUCUCAAAAAAAUAAAAAAAUAAAGUUUGUUUUUCUAUAAAAAGUCAUAACAAAGUAUCCGUAUGACUUUUUGAAUAAGUUAAUUUCUGCCAGUGUUUAAUUAUUUUAUUAAAGAAAAGCAACAGAGGAUUGAGCAUCA
# B11: chr15:52550718:52550819:-|3pUTR|ENSG00000128989|msi1|total|mutant (ssRNA)
# RNA: GGGAGUUCUACAGUCCGACGAUCUUUAUAUAAACUUUUUAAAUGCCGAAACUUUUUACUUCCACACUCAGUUUUGGAGACCCCCGAAUAAAAGGCUUCAAUACUCUGCAUUCCAUGCCCUCUGCCACCUGCUUUUUUUUCCCCCAACAGAGGAUUGAGCAUCA
# B12: chr7:6162096:6162197:-|3pUTR|ENSG00000008256|msi1|FALSE|unique (ssRNA)
# RNA: GGGAGUUCUACAGUCCGACGAUCGUCACAGAACAUUUUGGGGCAGUUUAAUGUGGUACCAAACUGAAAAUAGGAGCUAUUUAUAGAUGGAGCAGCACUUAGUGCUUCAUAGAAAGCAAUGCCUAUUUUUAAAGUUACAAACGCCAACAGAGGAUUGAGCAUCA
# B13: ENSG00000213799:stop:overlap|stop_codon|ENSG00000213799|stop_codon|NA|stop_codon (ssRNA)
# RNA: GGGAGUUCUACAGUCCGACGAUCUUUUUAAUCGAAAAGCAAAACUUGCACGUCAUCAUAGAAUUCAUACUGGAAAGAAACAUUAGAAAUAUGAAGAAUGUGACAAAGUUUACAGUUGUAAAUCAAGUCUUGAAAGACAGGAGACAACAGAGGAUUGAGCAUCA
# B14: chrX:141908562:141908663:+|CDS|ENSG00000155495|unk|total|mutant (ssRNA)
# RNA: GGGAGUUCUACAGUCCGACGAUCUCCUCGUUACGAAUUCCUGUGGGGUCCAAGAGCUCAUUCAGAAGUCAUUAAGAGGAAAGCCGCCGAGUUUUUGGCCAUGCUAAAGAAUACCGUCCCUAUUACCUUUCCAUCCUCUUACAACAACAGAGGAUUGAGCAUCA
# B15: chr16:70160055:70160156:+|3pUTR|ENSG00000090857|msi1|FALSE|unique (ssRNA)
# RNA: GGGAGUUCUACAGUCCGACGAUCUUGUGCUCACCACGAAGGAUGGUCUCUGCCUUCUCUUGUCGGUGUAUGCCAUCUGAACCUAGGAACACAAAGUAUAUUGGCCUCAAACGGAGACCCAGGGUUGCCAGUUUUCCGUGGGCCCAACAGAGGAUUGAGCAUCA
# B16: ENSG00000158859:stop:overlap|stop_codon|ENSG00000158859|stop_codon|NA|stop_codon (ssRNA)
# RNA: GGGAGUUCUACAGUCCGACGAUCUGAGGCCCCAGUCAGCACCGCAGGCCAUGCACUGCACAAUUCUAAGAAGCGCCACUACAUAGACUAUGAUGCAAAUGAUGUUCCUGGAGUUGUGUGACAUGGUGCCUUGCCCCAGCCACACAACAGAGGAUUGAGCAUCA
# B17: chr1:18907414:18907603:-|3pUTR|ENSG00000169991|msi1|FALSE|unique (ssRNA)
# RNA: GGGAGUUCUACAGUCCGACGAUCCCUUGAUUUCCCUGAUAACUUGAUGUUCUUCCCUCCCUCGCCAGCCAACAAUAGAGGCUUAGAGAUCUGUAAUUUCUCUGUGAGAAAGUCUGAAGGGGCCAGGCCUGGUCUCUGCUCCCUCAACAGAGGAUUGAGCAUCA
# B18: ENSG00000070961:be:win_751|CDS|ENSG00000070961|bound_else_gene|NA|bound_elsewhere_windowed (ssRNA)
# RNA: GGGAGUUCUACAGUCCGACGAUCAAAAAGUCUUUAGAUAAGGAUCCCUUACUUCUAUCAGGUACUCAUGUAAUGGAAGGCUCUGGAAGAAUGGUAGUUACAGCUGUAGGUGUAAAUUCUCAAACUGGAAUUAUCUUUACCUUACAACAGAGGAUUGAGCAUCA
# B19: chr1:54216159:54216271:+|CDS|ENSG00000116221|unk|FALSE|unique (ssRNA)
# RNA: GGGAGUUCUACAGUCCGACGAUCCUUGGAGCAGCCCGUGGUGGUGCAGAGCGUGGGCACGGAUGGACGUGUCUUCCAUUUCCUAGUGUUUCAACUGAAUACCACAGACCUGGACUGUAACGAGGGUGUCAAGAAUUUGGCCUGCAACAGAGGAUUGAGCAUCA
# B20: chr7:127373434:127373542:-|CDS|ENSG00000048405|unk|FALSE|unique (ssRNA)
# RNA: GGGAGUUCUACAGUCCGACGAUCAAAACAUAGUGAUUCAAAACAUGAUGGCACUUCUAACUCUCCUAGUAAAAAGUAUGAAGUAGCUGACGUCGGUAUUGAAGUAAAAGUCACAAAAAACUUUUCUCUUCACAGAUGCAAUAACAACAGAGGAUUGAGCAUCA
# B21: ENSG00000070961:be:win_4451|3pUTR|ENSG00000070961|bound_else_gene|NA|bound_elsewhere_windowed (ssRNA)
# RNA: GGGAGUUCUACAGUCCGACGAUCGUUUUGAAGCAACUGUUUAAUUUUUAAAAUUUUUGAAAACUUGCUAAUAACCUUUUGUUCAGAAUUUAGUAGAUUGUUUAAUGCAGGACAUCAACUACAUAAUGAAAGAUGCUUGAAAUGCAACAGAGGAUUGAGCAUCA
# B22: ENSG00000151502:stop:overlap|stop_codon|ENSG00000151502|stop_codon|NA|stop_codon (ssRNA)
# RNA: GGGAGUUCUACAGUCCGACGAUCCCACCUCCCUGGGUGAGGUGCGGACCCCCAGCCAGCUGUCUGACAACAACUGCAGGCAGUAGGCCCCCAGGGCCGAGAAGAUGCUGGGCACCCACCCAGCACCCCCAUCUACCAACACCACAACAGAGGAUUGAGCAUCA
# Target: T1, UNK ZnF1-6 (called full-length)
# Experiment: nsRBNS (natural sequence RNA bind-n-seq); RBNS binding buffer (assumed for nsRBNS): 25 mM Tris pH 7.5, 150 mM KCl, 3 mM MgCl2, 0.01% Triton X-100, 500 ug/ml BSA, 20 U/ml SUPERase-In, 4 C; UNK is unkempt and MSI1 is Musashi-1; names of the RNAs are library labels; protein concentration not given here; high values mean tight binding
row,Binder,binding signal [enrichment R]
1,B1,0.524
2,B2,0.339
3,B3,0.331
4,B4,0.777
5,B5,0.832
6,B6,0.65
7,B7,0.72
8,B8,0.654
9,B9,0.57
10,B10,1.13
11,B11,1.03
12,B12,0.572
13,B13,0.926
14,B14,0.517
15,B15,0.549
16,B16,0.629
17,B17,0.912
18,B18,0.459
19,B19,1.2
20,B20,0.812
21,B21,0.586
22,B22,0.954
